# Test results from the supplement of paper PMC8728848.
# This is one part of the list.
# Legend:
# Test in all cases: glycan array binding signal (z-score within array); higher = stronger binding
# Conditions in all cases: glycan notation: IUPAC condensed, linker removed
# Gal6S(b1-4)Glc6S = molecular target: Gal6S(b1-4)Glc6S
# How it was run: (§1)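 Glycan array data came from 3228 arrays in the Consortium for Functional Glycomics database, and only arrays with an available protein sequence were kept. Glycan names were put into IUPAC-condensed notation, and columns mapping to the same glycan were averaged. The binding signal is a within-array Z-score, averaged across arrays of one protein sequence run at different concentrations or buffers and across linkers. A negative Z-score can be read as non-binding.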
# Gal6S(b1-4)GlcNAc = molecular target: Gal6S(b1-4)GlcNAc
# How it was run: as §1
# Gal6S(b1-4)GlcNAc6S = molecular target: Gal6S(b1-4)GlcNAc6S
# How it was run: as §1
# GalNAc(a1-3)Gal = molecular target: GalNAc(a1-3)Gal
# How it was run: as §1
# GalNAc(a1-3)GalNAc = molecular target: GalNAc(a1-3)GalNAc
# How it was run: as §1
# [1] = molecular target: GalNAc(a1-3)GalNAc(a1-3)Gal(a1-4)Gal(b1-4)GlcNAc
# How it was run: as §1
# [2] = molecular target: GalNAc(a1-3)GalNAc(b1-3)Gal(a1-4)Gal(b1-4)Glc
# How it was run: as §1
# GalNAc(b1-3)Gal = molecular target: GalNAc(b1-3)Gal
# How it was run: as §1
# [3] = molecular target: GalNAc(b1-3)Gal(a1-4)Gal(b1-4)GlcNAc
# How it was run: as §1
# [4] = molecular target: GalNAc(b1-3)Gal(a1-4)Gal(b1-4)GlcNAc(b1-3)Gal(b1-4)Glc
# How it was run: as §1
# [5] = molecular target: GalNAc(b1-3)Gal(a1-6)Gal(b1-4)Glc
# How it was run: as §1
# GalNAc(b1-3)GalNAc = molecular target: GalNAc(b1-3)GalNAc
# How it was run: as §1
# GalNAc(b1-3)GlcNAc = molecular target: GalNAc(b1-3)GlcNAc
# How it was run: as §1
# GalNAc(b1-4)Gal(b1-4)Glc = molecular target: GalNAc(b1-4)Gal(b1-4)Glc
# How it was run: as §1
# GalNAc(b1-4)GlcNAc = molecular target: GalNAc(b1-4)GlcNAc
# How it was run: as §1
# [6] = molecular target: GalNAc(b1-4)GlcNAc(b1-2)Man
# How it was run: as §1
# [7] = molecular target: GalNAc(b1-4)GlcNAc(b1-2)Man(a1-3)[GalNAc(b1-4)GlcNAc(b1-2)Man(a1-6)]Man(b1-4)GlcNAc(b1-4)GlcNAc
# How it was run: as §1
# [8] = molecular target: GalNAc(b1-4)GlcNAc(b1-3)GalNAc(b1-4)GlcNAc
# How it was run: as §1
# GalNAc(b1-4)GlcNAc6S = molecular target: GalNAc(b1-4)GlcNAc6S
# How it was run: as §1
# GalNAc(b1-6)GalNAc = molecular target: GalNAc(b1-6)GalNAc
# How it was run: as §1
# GalNAc3S(b1-4)GlcNAc = molecular target: GalNAc3S(b1-4)GlcNAc
# How it was run: as §1
# GalNAc3S(b1-4)GlcNAc3S = molecular target: GalNAc3S(b1-4)GlcNAc3S
# How it was run: as §1
# [9] = molecular target: GalNAc3S(b1-4)[Fuc(a1-3)]GlcNAc
# How it was run: as §1
# GalNAc4S6S(b1-4)GlcNAc = molecular target: GalNAc4S6S(b1-4)GlcNAc
# How it was run: as §1
# GalNAc6S(b1-4)GlcNAc = molecular target: GalNAc6S(b1-4)GlcNAc
# How it was run: as §1
# Glc(a1-4)Glc = molecular target: Glc(a1-4)Glc
# How it was run: as §1
# [10] = molecular target: Glc(a1-4)Glc(a1-4)Glc(a1-4)Glc
# How it was run: as §1
# Glc(a1-6)Glc(a1-6)Glc = molecular target: Glc(a1-6)Glc(a1-6)Glc
# How it was run: as §1
# [11] = molecular target: Glc(a1-6)Glc(a1-6)Glc(a1-6)Glc
# How it was run: as §1
# Glc(b1-4)Glc = molecular target: Glc(b1-4)Glc
# How it was run: as §1
# Glc(b1-6)Glc = molecular target: Glc(b1-6)Glc
# How it was run: as §1
# GlcA(b1-3)Gal = molecular target: GlcA(b1-3)Gal
# How it was run: as §1
# GlcA(b1-3)GlcNAc = molecular target: GlcA(b1-3)GlcNAc
# How it was run: as §1
# GlcA(b1-6)Gal = molecular target: GlcA(b1-6)Gal
# How it was run: as §1
# [12] = molecular target: GlcA3S(b1-3)Gal(b1-4)GlcNAc(b1-2)Man
# How it was run: as §1
# [13] = molecular target: GlcA3S(b1-3)Gal(b1-4)GlcNAc(b1-3)Gal(b1-4)Glc
# How it was run: as §1
# [14] = molecular target: GlcNAc(a1-3)Gal(b1-4)GlcNAc
# How it was run: as §1
# [15] = molecular target: GlcNAc(a1-4)Gal(b1-3)GlcNAc
# How it was run: as §1
# [16] = molecular target: GlcNAc(a1-4)Gal(b1-4)GalNAc
# How it was run: as §1
# [17] = molecular target: GlcNAc(a1-4)Gal(b1-4)GlcNAc
# How it was run: as §1
# [18] = molecular target: GlcNAc(a1-4)Gal(b1-4)GlcNAc(b1-3)Gal(b1-4)Glc
# How it was run: as §1
# [19] = molecular target: GlcNAc(a1-4)Gal(b1-4)GlcNAc(b1-3)Gal(b1-4)GlcNAc
# How it was run: as §1
# [20] = molecular target: GlcNAc(a1-4)Gal(b1-4)GlcNAc(b1-3)Gal(b1-4)GlcNAc(b1-3)Gal(b1-4)GlcNAc
# How it was run: as §1
# [21] = molecular target: GlcNAc(a1-4)Gal(b1-4)GlcNAc(b1-3)Gal(b1-4)[Fuc(a1-3)]GlcNAc(b1-3)Gal(b1-4)[Fuc(a1-3)]GlcNAc
# How it was run: as §1
# [22] = molecular target: GlcNAc(a1-6)Gal(b1-4)GlcNAc
# How it was run: as §1
binder,measurement,setting,value
"MAL-II (Maackia amurensis), P93248 (protein) ATSNSKPTQVLLATFLTFFFLLLNNVNSSDELSFTINNFVPNEADLLFQGEASVSSTGVLQLTRVENGQPQQYSVGRALYAAPVRIWDNTTGSVASFSTSFTFVVKAPNPTITSDGLAFFLAPPDSQIPSGRVSKYLGLFNNSNSDSSNQIVAVEFDTYFGHSYDPWDPNYRHIGIDVNGIESIKTVQWDWINGGVAFATITYLAPNKTLIASLVYPSNQTSFIVAASVDLKEILPEWVRVGFSAATGYPTQVETHDVLSWSFTSTLEANSDAATENNVHIARYTA",glycan array binding signal (z-score),Gal6S(b1-4)Glc6S,-0.185
same,glycan array binding signal (z-score),Gal6S(b1-4)GlcNAc,-0.242
same,glycan array binding signal (z-score),Gal6S(b1-4)GlcNAc6S,-0.341
same,glycan array binding signal (z-score),GalNAc(a1-3)Gal,-0.218
same,glycan array binding signal (z-score),GalNAc(a1-3)GalNAc,-0.27
same,glycan array binding signal (z-score),[1],-0.278
same,glycan array binding signal (z-score),[2],-0.176
same,glycan array binding signal (z-score),GalNAc(b1-3)Gal,-0.245
same,glycan array binding signal (z-score),[3],-0.185
same,glycan array binding signal (z-score),[4],-0.107
same,glycan array binding signal (z-score),[5],-0.126
same,glycan array binding signal (z-score),GalNAc(b1-3)GalNAc,-0.083
same,glycan array binding signal (z-score),GalNAc(b1-3)GlcNAc,-0.211
same,glycan array binding signal (z-score),GalNAc(b1-4)Gal(b1-4)Glc,-0.041
same,glycan array binding signal (z-score),GalNAc(b1-4)GlcNAc,-0.214
same,glycan array binding signal (z-score),[6],-0.243
same,glycan array binding signal (z-score),[7],0.265
same,glycan array binding signal (z-score),[8],-0.156
same,glycan array binding signal (z-score),GalNAc(b1-4)GlcNAc6S,-0.292
same,glycan array binding signal (z-score),GalNAc(b1-6)GalNAc,-0.219
same,glycan array binding signal (z-score),GalNAc3S(b1-4)GlcNAc,-0.041
same,glycan array binding signal (z-score),GalNAc3S(b1-4)GlcNAc3S,-0.331
same,glycan array binding signal (z-score),[9],-0.316
same,glycan array binding signal (z-score),GalNAc4S6S(b1-4)GlcNAc,-0.378
same,glycan array binding signal (z-score),GalNAc6S(b1-4)GlcNAc,-0.323
same,glycan array binding signal (z-score),Glc(a1-4)Glc,-0.158
same,glycan array binding signal (z-score),[10],-0.199
same,glycan array binding signal (z-score),Glc(a1-6)Glc(a1-6)Glc,-0.168
same,glycan array binding signal (z-score),[11],-0.072
same,glycan array binding signal (z-score),Glc(b1-4)Glc,-0.155
same,glycan array binding signal (z-score),Glc(b1-6)Glc,-0.193
same,glycan array binding signal (z-score),GlcA(b1-3)Gal,-0.219
same,glycan array binding signal (z-score),GlcA(b1-3)GlcNAc,-0.21
same,glycan array binding signal (z-score),GlcA(b1-6)Gal,-0.165
same,glycan array binding signal (z-score),[12],-0.445
same,glycan array binding signal (z-score),[13],-0.12
same,glycan array binding signal (z-score),[14],-0.239
same,glycan array binding signal (z-score),[15],-0.216
same,glycan array binding signal (z-score),[16],-0.097
same,glycan array binding signal (z-score),[17],-0.259
same,glycan array binding signal (z-score),[18],-0.228
same,glycan array binding signal (z-score),[19],-0.195
same,glycan array binding signal (z-score),[20],-0.233
same,glycan array binding signal (z-score),[21],-0.005
same,glycan array binding signal (z-score),[22],-0.225
